# Test results: PubChem BioAssay AID602342 (Broad Institute, 2012)
# Screen size: about 340,000 compounds; about 1,000 (0.29%) were called active. This list was built around the results that the source calls inconclusive (neither active nor inactive); the mix of calls is not that of the screen.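 Rule for the calls: active = mean replicate activation score at least 90 and every replicate individually at or above 90; inconclusive = only one of the two criteria met; inactive = neither criterion met.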 More than one record can exist for a structure, and the calls need not agree.
# Test: miR-122 Renilla sensor signal increase in Huh7, primary screen, miR-122 inhibitor project, cell-based, single point, plate reader (AID 602342);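 note: higher luciferase means less miR-122 activity so hits act as miR-122 inhibitors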
# Details: Huh7 miR-122 Renilla luciferase sensor, 48 h, active compounds read high, neutral wells = 0, positive control = 100
smiles,measurement,setting,value
O=C(O)c1ccc2c(c1)C(=O)N(CCCCCCCN1C(=O)c3ccc(C(=O)O)cc3C1=O)C2=O,activation (reporter increase),at 12.5 µM unless noted,inconclusive: 112%
Cc1ccc(S(=O)(=O)Nc2ccc3c(c2)C(=O)N([C@H](C)CO)C[C@@H](C)[C@H](CN(C)C(=O)NC2CCCCC2)OCCCC[C@@H](C)O3)cc1,activation (reporter increase),at 12.5 µM unless noted,inactive: -12.5% [at 16.7 µM]
C[C@H](CO)N1C[C@H](C)[C@@H](CN(C)C(=O)C2CC2)Oc2ncc(-c3cccc(F)c3)cc2C1=O,activation (reporter increase),at 12.5 µM unless noted,inactive: -1.71% [at 16.7 µM]
COC(=O)c1cc(S(=O)(=O)NCCN2CCN(c3ccccc3F)CC2)c[nH]1,activation (reporter increase),at 12.5 µM unless noted,inactive: 1.26%
COc1cc(S(=O)(=O)N(CCc2ccccc2)Cc2cccs2)ccc1-n1cnnn1,activation (reporter increase),at 12.5 µM unless noted,inconclusive: 90.8%
O=C(Nc1cc(S(=O)(=O)Nc2ccccc2F)ccc1Cl)c1ccc(F)cc1F,activation (reporter increase),at 12.5 µM unless noted,inconclusive: 91.7%
O=S1(=O)CCC(NS(=O)(=O)c2ccc3ccccc3c2)C1 (stereo unspecified),activation (reporter increase),at 12.5 µM unless noted,inconclusive: 119%
COCC1CCN(C(=O)c2cc(COc3cccc4cnccc34)on2)CC1,activation (reporter increase),at 12.5 µM unless noted,inactive: -4.22%
O=S(=O)(Nc1ncnc2c1oc1ccccc12)c1ccc(Cl)s1,activation (reporter increase),at 12.5 µM unless noted,inconclusive: 96.1%
COC(=O)c1cc(CSc2nc3ccccc3c(=O)n2C)oc1C,activation (reporter increase),at 12.5 µM unless noted,inactive: -0.595%
CC(=O)Nc1ccc(C(=O)Nc2ccc(S(=O)(=O)NCC3CCCO3)cc2)cc1 (stereo unspecified),activation (reporter increase),at 12.5 µM unless noted,inconclusive: 97.4%
C[C@@H]1CN([C@@H](C)CO)C(=O)c2cc(N(C)C)ccc2O[C@@H]1CN(C)C(=O)Nc1ccc(F)cc1,activation (reporter increase),at 12.5 µM unless noted,inconclusive: 103% [at 16.7 µM]
CCOc1ccccc1NS(=O)(=O)N(C)C,activation (reporter increase),at 12.5 µM unless noted,inconclusive: 140%
N#CC(C(=S)Nc1ccccc1)c1nc2ccccc2[nH]1 (stereo unspecified),activation (reporter increase),at 12.5 µM unless noted,inconclusive: 95.8%
CCOc1cc(C)c(Cl)cc1S(=O)(=O)NCC1CCCO1 (stereo unspecified),activation (reporter increase),at 12.5 µM unless noted,inconclusive: 97.8%
O=C(Cc1ccccc1)N1C[C@@H]2[C@H](c3ccccc31)[C@@H](CO)N2C(=O)Nc1ccc(F)cc1,activation (reporter increase),at 12.5 µM unless noted,inconclusive: 92.3% [at 16.7 µM]
C[C@H]1CN([C@@H](C)CO)C(=O)Cc2cc(NS(=O)(=O)c3ccccc3)ccc2O[C@H]1CN(C)S(=O)(=O)c1cn(C)cn1,activation (reporter increase),at 12.5 µM unless noted,inactive: 1.69% [at 16.7 µM]
COc1ccc(CN(C)C[C@@H]2Oc3c(NC(=O)C4CCCCC4)cccc3C(=O)N([C@H](C)CO)C[C@H]2C)cc1,activation (reporter increase),at 12.5 µM unless noted,inconclusive: 98% [at 16.7 µM]
CCOC(=O)C1(CC2CCCCO2)CCN(C(=O)Nc2ccc(C(=O)OC)cc2)CC1 (stereo unspecified),activation (reporter increase),at 12.5 µM unless noted,inactive: 5.15%
CSC(=S)NCc1cccnc1,activation (reporter increase),at 12.5 µM unless noted,inconclusive: 117%
CCc1cccc(NS(=O)(=O)c2ccc3c(c2)NC(=O)CO3)c1,activation (reporter increase),at 12.5 µM unless noted,inconclusive: 116%
O=C(Nc1ccccc1)N1C[C@H]2[C@@H](c3ccccc31)[C@@H](CO)N2C(=O)c1ccccn1,activation (reporter increase),at 12.5 µM unless noted,active: 132% [at 16.7 µM]
CCC(=O)N1N=C(c2ccc(NS(=O)(=O)c3ccc(C)cc3)cc2)CC1c1ccco1 (stereo unspecified),activation (reporter increase),at 12.5 µM unless noted,inconclusive: 101%
CCCNC(=O)NC[C@@H]1[C@@H](c2ccc(C3=CCCCC3)cc2)[C@H](CO)N1C(C)=O,activation (reporter increase),at 12.5 µM unless noted,inconclusive: 114% [at 16.7 µM]
C[C@H](CO)N1C[C@H](C)[C@@H](CN(C)Cc2ccc(Oc3ccccc3)cc2)Oc2c(NC(=O)c3ccncc3)cccc2C1=O,activation (reporter increase),at 12.5 µM,active: 121%
same,activation (reporter increase),at 16.7 µM,active: 111%
COc1ccc(C(=O)N2C[C@H]3[C@@H](c4ccccc42)[C@@H](CO)N3C(=O)c2ccc(F)cc2)cc1,activation (reporter increase),at 12.5 µM unless noted,inconclusive: 91.7% [at 16.7 µM]
COc1ccccc1-c1cc(=O)c2c(O)ccc([N+](=O)[O-])c2o1,activation (reporter increase),at 12.5 µM unless noted,inconclusive: 98.3%
CCOc1ccccc1NS(=O)(=O)c1ccc2c(c1)N(C)CCO2,activation (reporter increase),at 12.5 µM unless noted,inconclusive: 91%
Cc1cc(Cl)c(Cl)cc1S(=O)(=O)NCCCn1ccnc1,activation (reporter increase),at 12.5 µM unless noted,active: 132%
COc1ccc(N(C(=O)c2ccco2)S(=O)(=O)c2cc(Cl)c(Cl)cc2Cl)cc1,activation (reporter increase),at 12.5 µM unless noted,active: 134%
CC(=O)Nc1ccc2c(c1)C(=O)N(C)[C@H]1CC[C@@H](CC(=O)NCc3ccc(Cl)cc3)O[C@H]1CO2,activation (reporter increase),at 12.5 µM unless noted,inconclusive: 130% [at 16.7 µM]
C[C@H](CO)N1C[C@H](C)[C@H](CN(C)C(=O)c2ccncc2)Oc2ncc(C3=CCCC3)cc2C1=O,activation (reporter increase),at 12.5 µM unless noted,inactive: -7.36% [at 16.7 µM]
COc1cccc(CNS(=O)(=O)c2cc(-c3cc(C)no3)ccc2C(C)C)c1,activation (reporter increase),at 12.5 µM unless noted,inconclusive: 91.1%
Cc1cccc(C(=O)Nc2cccc(S(=O)(=O)NCc3ccco3)c2)c1,activation (reporter increase),at 12.5 µM unless noted,inconclusive: 95.1%
CC1Cc2ccccc2N1S(=O)(=O)c1cccc(C(=O)Nc2cccnc2)c1 (stereo unspecified),activation (reporter increase),at 12.5 µM unless noted,inactive: 35.8%
COc1ccc(-n2ncc3c(N(C)C4CCCCC4)ncnc32)cc1,activation (reporter increase),at 12.5 µM unless noted,inactive: -2%
Cc1ccc(-c2cnc3c(c2)C(=O)N([C@H](C)CO)C[C@@H](C)[C@H](CN(C)Cc2ccccc2F)O3)cc1,activation (reporter increase),at 12.5 µM unless noted,inconclusive: 101% [at 16.7 µM]
COc1ccccc1CN(C)C(=O)c1cccc(S(=O)(=O)N2CCCc3ccccc32)c1,activation (reporter increase),at 12.5 µM unless noted,inconclusive: 96.5%
C[C@@H]1CN([C@H](C)CO)C(=O)c2cc(NS(=O)(=O)c3cccs3)ccc2O[C@@H](C)CCCCO[C@H]1CN(C)Cc1ccc2c(c1)OCO2,activation (reporter increase),at 12.5 µM unless noted,inactive: -1.65% [at 16.7 µM]
CCCCNC(=O)C1(C)CCN1C(=O)c1cncc(Br)c1 (stereo unspecified),activation (reporter increase),at 12.5 µM unless noted,inactive: -9.01%
C=CCNC(=O)c1ccccc1NC(=O)c1ccc(Cl)c(S(=O)(=O)Nc2cc(C)ccc2C)c1,activation (reporter increase),at 12.5 µM unless noted,inconclusive: 102%
O=C(C[C@@H]1CC[C@@H]2[C@H](COC[C@@H](O)CN2S(=O)(=O)c2ccc(Cl)cc2)O1)NCCN1CCCC1,activation (reporter increase),at 12.5 µM unless noted,inactive: -3.32% [at 16.7 µM]
C[C@H](CO)N1C[C@H](C)[C@@H](CN(C)Cc2ccc(Cl)c(Cl)c2)Oc2c(NS(=O)(=O)c3cccs3)cccc2C1=O,activation (reporter increase),at 12.5 µM unless noted,active: 95.4%
C[C@H](CO)N1C[C@H](C)[C@@H](CN(C)Cc2ccc3c(c2)OCO3)Oc2c(NC(=O)C3CC3)cccc2C1=O,activation (reporter increase),at 12.5 µM unless noted,inconclusive: 92.5%
CCc1cccc2c(C(=O)CN3C(=O)NC4(CCCCC4)C3=O)c[nH]c12,activation (reporter increase),at 12.5 µM unless noted,active: 115%
Cc1cc(C)cc(Cn2c3ccc(NC(=S)NCc4ccccc4F)cc3c(=O)n2C)c1,activation (reporter increase),at 12.5 µM unless noted,inconclusive: 93.8%
CC(C)C(=O)Nc1ccc2c(c1)C(=O)N(C)[C@H]1CC[C@@H](CC(=O)NCC3CC3)O[C@@H]1CO2,activation (reporter increase),at 12.5 µM unless noted,inconclusive: 91.7% [at 16.7 µM]
COCC(=O)Nc1ccc2c(c1)[C@@H]1C[C@H](CC(=O)NCc3ccccc3)O[C@H](CO)[C@@H]1O2,activation (reporter increase),at 12.5 µM unless noted,inconclusive: 95.1% [at 16.7 µM]
O=C(NC1CCCC1)C(c1ccccc1)N(Cc1ccc2c(c1)OCO2)C(=O)Cc1cccs1 (stereo unspecified),activation (reporter increase),at 12.5 µM unless noted,inconclusive: 90.1%
C/C=C/c1ccc([C@H]2[C@@H](CO)N(c3nc(CC)cs3)[C@H]2CNC(C)C)cc1,activation (reporter increase),at 12.5 µM unless noted,inconclusive: 91.7% [at 16.7 µM]
COCCNC(=O)c1ccc(C)c(S(=O)(=O)Nc2ccc(C)cc2)c1,activation (reporter increase),at 12.5 µM unless noted,inconclusive: 92.1%
COc1ccc(S(=O)(=O)N2CC[C@@H]3[C@H](CO)N(C)c4ccc(-c5ccc(F)cc5)cc4[C@@H]32)cc1,activation (reporter increase),at 12.5 µM unless noted,inconclusive: 95.1% [at 16.7 µM]
CC1CCCC(NS(=O)(=O)c2ccc3c(c2)OCCO3)C1C (stereo unspecified),activation (reporter increase),at 12.5 µM unless noted,inconclusive: 112%
O=S(=O)(Nc1cccc(-n2cnnn2)c1)c1cc(Br)ccc1Br,activation (reporter increase),at 12.5 µM unless noted,active: 108%
COCCNC(=O)C[C@@H]1CC[C@H]2[C@H](COc3ccc(NC(=O)Cc4ccccc4)cc3C(=O)N2C)O1,activation (reporter increase),at 12.5 µM unless noted,inconclusive: 107% [at 16.7 µM]
COc1ccccc1NS(=O)(=O)c1cc(NC(=O)c2cc(=O)[nH]c3ccccc23)ccc1N1CCOCC1,activation (reporter increase),at 12.5 µM unless noted,inconclusive: 107%
CC(=O)c1cccc(S(=O)(=O)Nc2ccc3nc(C)sc3c2)c1,activation (reporter increase),at 12.5 µM unless noted,inactive: 13.2%
COc1ccccc1N1CCN(C(=O)CSc2nnc(NC(=O)C3CCC3)s2)CC1,activation (reporter increase),at 12.5 µM unless noted,inconclusive: 104%
CN(C)S(=O)(=O)c1cccc(NC(=S)NCCc2ccccn2)c1,activation (reporter increase),at 12.5 µM unless noted,inactive: 51.7%
COc1ccc(-c2ccc3c(c2)[C@H]2[C@H](CCN2S(=O)(=O)c2ccc(OC)cc2)[C@@H](CO)N3C)cc1,activation (reporter increase),at 12.5 µM unless noted,inactive: -5.76% [at 16.7 µM]
Cc1ccc(-c2n[nH]c(=O)c3ccccc23)cc1S(=O)(=O)Nc1ccc(F)cc1,activation (reporter increase),at 12.5 µM unless noted,inconclusive: 92.5%
CN1c2ccc(-c3ccccc3)cc2[C@@H]2[C@@H](CCN2C(=O)c2ccc3c(c2)OCO3)[C@@H]1CO,activation (reporter increase),at 12.5 µM unless noted,inactive: 11.8% [at 16.7 µM]
COc1ccc(C2=Nn3c(nnc3-c3ccccc3OC)SC2)cc1OC1CCOC1 (stereo unspecified),activation (reporter increase),at 12.5 µM unless noted,active: 131%
CN(C[C@@H]1[C@@H](c2ccccc2)[C@@H](CO)N1Cc1ccccn1)S(C)(=O)=O,activation (reporter increase),at 12.5 µM unless noted,inconclusive: 91.7% [at 16.7 µM]
C[C@H](CO)N1C[C@H](C)[C@H](CN(C)C(=O)c2cccc(F)c2)Oc2ncc(-c3ccncc3)cc2C1=O,activation (reporter increase),at 12.5 µM unless noted,inactive: -10.1% [at 16.7 µM]
CCN1/C(=C/C(C)=C/c2sc3ccccc3[n+]2CC)Sc2ccccc21,activation (reporter increase),at 12.5 µM unless noted,inactive: -27.5%
COc1ccccc1CNC(=O)Cn1cnnn1,activation (reporter increase),at 12.5 µM unless noted,inactive: -8.63%
COc1ccc(CN(C)C[C@H]2Oc3ccc(NC(=O)c4ccncc4)cc3CC(=O)N([C@@H](C)CO)C[C@@H]2C)cc1,activation (reporter increase),at 12.5 µM unless noted,inactive: -0.753% [at 16.7 µM]
COc1ccc(S(=O)(=O)Nc2ccc(S(=O)(=O)Nc3ccc(F)cc3)cc2)cc1C,activation (reporter increase),at 12.5 µM unless noted,inconclusive: 94.7%
Cc1cccc(OCCCC(=O)Nc2ccc(Cl)c(S(=O)(=O)N3CCOCC3)c2)c1,activation (reporter increase),at 12.5 µM unless noted,inconclusive: 98.3%
